In the RNAGym collection of RNA variant scans (doi:10.1093/nar/gkz1192):
The source gives no read counts; variants with many changes may rest on few reads.

B1: CPEB3 Ribozyme (parent)
chain: UAACAGGGGGCCACAGCAGAAGCGUUCACGUCGCAGCCCCUGUCAGAUUCUGGUGAAUCUGCGAAUUCUGCUGUAUAUCUC

Variants of: B1
Test: self-cleavage, relative activity (ratio to wild type); higher = more cleavage; in vitro, sequencing
Outline: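 Libraries of CPEB3 self-cleaving ribozyme mutants came from rounds of error-prone PCR and carried barcodes, which DNA sequencing matched to variants. In vitro transcription used T7 RNA polymerase at 37°C for 5 hours, with a further 15 min in DNase I before EDTA stopped the reaction; the ribozymes cleaved during both steps. The RNA was reverse transcribed with template switching and sequenced on Illumina. Relative activity is the cleaved/total read fraction of a variant divided by that of the unmutated ribozyme, averaged over three batches with at least 5 reads.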

Variant | self-cleavage
C4U G6U A35U U49C A75C U78C | 0.08
C4U U25C C29U A45G U54A U78C | 0.31
C4U A18U A65G | 0.41
A5G A13G G36C | 0.57
A5C U31C G36A U69C A75U | 0.38
A5G A20G A35U U43C | 0.21
C4U A45G U80A | 1.1
A5G A13U U43A G73A | 1.07
A5C A57G U58G U66G | 0.1
A5G A28U U49A G55U A77U | 0.46
A5G A35G U60C U72C | 0.46
A5C U41C A65U U69A | 0.26
A5G A28G U41A U49C U72C U80C | 0.12
A5G A13U G19A A45G A65G | 0.07
A5G A13U U60C C62U A64G | 0.23
A5G A20G C27U A28G | 0.04
A5G A20G C59U | 0.61
A5G A35U U74G | 0.55
A5G A20C U41C U43A U66C | 0.43
A5G A15U U31C A47U U80C | 0.08
A5C A35G U43C U51C A65U | 0.22
C4U A13U A45U A56G A65U U67C | 0.21
C4U A15G U78C | 1.11
A5C C29U G61A U69A U78A | 0.09

Variant | self-cleavage
A5G A18U C40U | 0.12
A5C G6A A47G | 0.58
C4U G16A U31C A35G U58A G73A | 0.57
A5G A15U U25C | 0.34
A5G A13U A15U A21G A47G | 0.34
A5G A21G C23U A35C A57U | 0.07
C4U A20G A28G A35U C37A U41C U66C | 0.14
A5G A13G U48C U60C | 0.04
A5G A13U U54C U72C | 0.63
A5G A35U U49A U60C | 0.12
A5C G6U U60C | 0.13
A5C G36C U74C | 0.18
A5G A15C U48C | 0.49
A5C A35G A45G A64G U72C | 1.25
C4U A28C A35G C38U U54A U80C | 1.14
A5C U31C U48G U60A G70A U72C | 0.05
A5C C38A U43C A45C U72A U80C | 0.05
A5G A20U U76G | 0.37
C4U A28U U49C U66C | 0.18
A5G A21G U26C U66A U74A | 0.44
A5C A13G A45G | 0.81
A5G A13U A21G C81U | 0.15
A5C G24C C50A | 0.43
A5G A35G U54C A56G A57G U60A | 0

Variant | self-cleavage
A5G A20U U26G A28G U54C U58C U67C | 0.28
A5G A15U U41C G55A | 0.41
C4U G33A A35G | 0.91
A5G A18U G30U U51C | 0.08
A5G A18G U54C A57G | 0.09
A5G A15G U51C U54A U72C | 0.88
C4U A18U U51C A57G A65G U74A | 0.53
C4U A13U U54C A65G | 1.02
A5G A15G A45U U51C A57U U67C | 0.17
C4U U31C A45G U51G | 0.48
A5G A45G U58C G63A C71G | 0.13
A5C C12A A64G | 1.02
C4U C37G G63A A65G | 0.39
C4U G30A A35G A57G U66C U76A | 0.12
A5G A28G U43C U49C A56G | 0.48
A5G A28G U49C U54G | 0.19
C4G U51A U69A U78C | 0.68
A5G A18U A45U U48C U51C A75G | 0
C4G U41C A64U | 0.43
A5G A15U U54A U60C | 0.2
A5G C12G A28G U69G | 0.21
A5C A15G U25C U26A C44U U48C A64G | 0.05
C4G U26A U41C U43A C44A A64G | 0.08
A5G A21G A64G U72A U80C | 0.43

Variant | self-cleavage
A5C C17U U31C U48C U54C U74C A75G | 0.12
A5G A20U U60A | 0.31
A5G A15U C37G | 0.46
A5G A13G U49C U51C A56G | 0.62
C4U A28U U48C | 0.6
A5G A64U A75G | 0.72
A5G C11G U51C U60C | 0.05
A5G A18G U72C | 0.55
A5G A21G C38U U54G U67C A75G | 0.15
C4U U54C A57U | 0.42
A5G A20G A21G U25C U49C U58C | 0.16
A5G A20G U41A A56U A75G U78C | 0.05
A5G A13U A28U | 0.78
A5C G6A A13G A20G A21U C44U U60C | 0.07
A5G A18G U58A U78A | 0.66
C4U A15G U41A U80A | 0.56
A5G A28G U54C A56G G63A C79A U80C | 0.16
A5G A13U A21U U66G | 0.37
A5G A18G U54C A57G U66C | 0
A5G A20G A35U A45C | 0.48
A5G A13G A18U U51C A57G A77G | 0.19
A5G A13U A20G | 0.48
A5G A20U U48C U67C | 0.05
A5C U31C U43G U69C | 0.4

Variant | self-cleavage
A5G C11G A28G C39A U72C | 0.11
A5G A20G U60C A64G | 0.28
A5G A21G U26C A64G | 0.1
A5G A15C A35U C38U U58C | 0.26
A5G A20G A28G U43A | 0.26
A5C G8A A20G A35U U43C | 0.06
A5G A13U U26C U48A G63A A64C | 0.25
A5G A13G U25G U58G U66C U74A | 0.11
A5C G7U U31C U41A U72C | 0.08
A5C U43C G46U A56G U66A U78C | 0.04
C4U A5G C27G | 0.15
A5G A13G A28U C37A U41C A57G C71A | 0.22
A5G A13U A21C A45G A64U C81A | 0.17
A5C A13G U25C A56G | 0.07
A5G A35U U43C U51A U54C | 0.16
A5C A18U A35C G42A U78C | 0.06
A5C C29G C40U U80C | 0.16
A5G A15G U26C A64U | 0.39
A5G A18U A45G U48A U49C A64G | 0.29
A5G A20U C23A A45U U51A U60C | 0.08
A5C A18U U80A | 0.67
A5G A21G A75U | 0.82
A5G A21G A75G | 0.12
C4G A64G U72A U78C | 0.53

Variant | self-cleavage
A5G A18U A47G A57G U74C | 0.2
A5G A45G A57G A65G U74A | 0.35
A5G A18U U25C A35U U43A A57G C71A | 0.07
A5G A15G A18G U69C | 0.36
A5G A28G A35U A45G U49A A57G | 0.2
C4G U41A U43C U69A | 0.17
A5C A18G C29G U67C | 0.15
A5G A13G A65G U67C U80C | 0.28
A5C G6C U25C U31C U60A | 0.08
A5G C12A A13G A35U A47G U49C | 0.09
C4U A13G U54C U80C | 1.09
A5G A15C U51A G55A A57G | 0.16
A5G A28G U43A A45U A65G U72C U80C | 0.03
A5G A18G U48C | 0.63
A5C U72C U80C | 1.06
A5G A15U U31C U51A | 0.59
A5G A57G U78A | 0.85
A5C A56G U60C A77G | 0.28
A5G A20G A35U U60C | 0.32
A5G A20U U48C | 0.11
A5C G19C A56G | 0.43
A5G A21G U31G A56G | 0.5
A5G A21G U25C C37U A47C G70C U78C | 0.05
A5G A13U A18C U74C U76C | 0.23

Variant | self-cleavage
A5C A13G U25C C39U A45U A47G U80C | 0.09
A5C U25C A56G U67C C68A | 0.32
A5G C11G A13G | 0.55
A5G A13C U72G | 0.53
A5C G10A A21U U31C U54C U72C | 0.06
A5G A15G A18G A47G | 0.1
A5G A45G U51C A56G U78C | 0.23
A5G A45G U66C | 0.22
A5G A28U G33U | 0.29
A5G A47G U72A | 0.53
A5G A21G A45G U72C | 0.12
A5G A28G U31A U43A | 0.41
A5G A28C A35U U54C U58C | 0.23
A5G A18U G24C G30A | 0.08
A5G A20G U25C U26C G33U U43A U78C | 0.09
A5G A15U C39U | 0.32
A5G A18G U26C A57U U58C A64C U78C | 0.12
A5C C44A U54C A65G | 0.07
C4U U26C A64G U78C | 0.28
C4G C12G A28G A35G U41C U72C | 0.32
A5G A45G U60C G70A U72C | 0.06
C4U A28U U80C | 1.16
A5G A13U A20U U72A | 0.18
